These are literature values, as cited in patent US20250340579A1 (priority 2022, published 2025).

As a reminder, the pKa is the pH at which an ionisable group is half protonated.

The conditions of this data set: dissociation of ionizable proton of the ligand; cited from earlier work.

For `c1c[nH]cn1` [imidazole], the pKa was 7.0.
Consider `c1nnn[nH]1` [tetrazole], for which the pKa is reported as 4.7.
